For assay [1], the target named is Tyrosine-protein kinase SYK (Homo sapiens) (UniProt P43405). Particulars: at 1 µM.
Assay [2] has as its target T1, Tyrosine-protein kinase Tec (Homo sapiens) (UniProt P42680).
T1 sequence (whole entry): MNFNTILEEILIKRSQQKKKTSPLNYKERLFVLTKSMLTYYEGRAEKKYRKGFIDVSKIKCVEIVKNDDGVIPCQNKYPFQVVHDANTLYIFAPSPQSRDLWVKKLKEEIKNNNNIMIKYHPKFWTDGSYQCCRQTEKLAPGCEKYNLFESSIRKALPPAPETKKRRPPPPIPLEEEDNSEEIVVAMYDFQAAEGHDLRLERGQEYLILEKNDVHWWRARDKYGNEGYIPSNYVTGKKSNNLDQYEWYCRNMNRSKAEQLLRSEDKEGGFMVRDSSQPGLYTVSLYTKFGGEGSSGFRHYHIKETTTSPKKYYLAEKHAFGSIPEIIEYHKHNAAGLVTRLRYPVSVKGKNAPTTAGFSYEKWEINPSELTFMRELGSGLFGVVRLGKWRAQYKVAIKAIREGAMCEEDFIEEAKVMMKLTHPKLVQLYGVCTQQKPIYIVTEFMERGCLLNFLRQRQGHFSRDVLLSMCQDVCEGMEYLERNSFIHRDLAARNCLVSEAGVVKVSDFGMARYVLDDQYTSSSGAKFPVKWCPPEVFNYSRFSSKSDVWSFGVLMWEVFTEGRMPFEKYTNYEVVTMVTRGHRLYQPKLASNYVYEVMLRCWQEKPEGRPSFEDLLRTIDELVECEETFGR
The note with it: at 0.1 µM.

Assay [3] has as its target T1, Tyrosine-protein kinase Tec (Homo sapiens). Particulars: at 1 µM.
Assay [4] has as its target Angiopoietin-1 receptor (Homo sapiens) (UniProt Q02763). Particulars: at 0.1 µM.
UniProt Q02763, sequence (Q02763 whole entry): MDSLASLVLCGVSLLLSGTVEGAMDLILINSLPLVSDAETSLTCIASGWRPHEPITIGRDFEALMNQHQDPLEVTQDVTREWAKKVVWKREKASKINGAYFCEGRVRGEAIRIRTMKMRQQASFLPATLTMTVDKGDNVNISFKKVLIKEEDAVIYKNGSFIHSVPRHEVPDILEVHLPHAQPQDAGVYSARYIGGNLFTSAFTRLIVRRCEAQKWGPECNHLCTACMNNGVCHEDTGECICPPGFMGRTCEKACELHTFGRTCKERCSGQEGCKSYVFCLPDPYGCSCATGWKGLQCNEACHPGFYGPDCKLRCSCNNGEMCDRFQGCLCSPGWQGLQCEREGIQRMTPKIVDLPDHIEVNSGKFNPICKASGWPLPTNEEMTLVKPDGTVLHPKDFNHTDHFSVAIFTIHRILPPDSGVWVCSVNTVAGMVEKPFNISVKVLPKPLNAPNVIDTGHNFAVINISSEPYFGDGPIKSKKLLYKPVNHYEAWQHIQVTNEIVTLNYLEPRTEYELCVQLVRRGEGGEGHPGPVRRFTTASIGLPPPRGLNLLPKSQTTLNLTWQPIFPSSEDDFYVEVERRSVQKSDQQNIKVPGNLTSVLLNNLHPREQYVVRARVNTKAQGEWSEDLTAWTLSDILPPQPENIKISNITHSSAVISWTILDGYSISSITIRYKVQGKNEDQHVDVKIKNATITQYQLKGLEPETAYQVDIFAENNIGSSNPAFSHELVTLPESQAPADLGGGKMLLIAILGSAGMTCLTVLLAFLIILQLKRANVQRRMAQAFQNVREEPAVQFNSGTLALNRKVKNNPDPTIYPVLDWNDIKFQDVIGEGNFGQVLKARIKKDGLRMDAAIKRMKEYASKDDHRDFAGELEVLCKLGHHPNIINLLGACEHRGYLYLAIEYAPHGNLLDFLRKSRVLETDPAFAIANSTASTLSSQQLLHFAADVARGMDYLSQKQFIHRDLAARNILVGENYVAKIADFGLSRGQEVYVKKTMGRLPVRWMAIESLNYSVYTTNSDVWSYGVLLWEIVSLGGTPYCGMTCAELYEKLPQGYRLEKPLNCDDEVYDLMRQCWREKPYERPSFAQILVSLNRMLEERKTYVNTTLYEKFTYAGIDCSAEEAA
Assay [5] has the same target. Particulars: at 1 µM.
Assay [6] concerns the target T2, Non-receptor tyrosine-protein kinase TNK1 (Homo sapiens) (UniProt Q13470).
T2 sequence (whole entry): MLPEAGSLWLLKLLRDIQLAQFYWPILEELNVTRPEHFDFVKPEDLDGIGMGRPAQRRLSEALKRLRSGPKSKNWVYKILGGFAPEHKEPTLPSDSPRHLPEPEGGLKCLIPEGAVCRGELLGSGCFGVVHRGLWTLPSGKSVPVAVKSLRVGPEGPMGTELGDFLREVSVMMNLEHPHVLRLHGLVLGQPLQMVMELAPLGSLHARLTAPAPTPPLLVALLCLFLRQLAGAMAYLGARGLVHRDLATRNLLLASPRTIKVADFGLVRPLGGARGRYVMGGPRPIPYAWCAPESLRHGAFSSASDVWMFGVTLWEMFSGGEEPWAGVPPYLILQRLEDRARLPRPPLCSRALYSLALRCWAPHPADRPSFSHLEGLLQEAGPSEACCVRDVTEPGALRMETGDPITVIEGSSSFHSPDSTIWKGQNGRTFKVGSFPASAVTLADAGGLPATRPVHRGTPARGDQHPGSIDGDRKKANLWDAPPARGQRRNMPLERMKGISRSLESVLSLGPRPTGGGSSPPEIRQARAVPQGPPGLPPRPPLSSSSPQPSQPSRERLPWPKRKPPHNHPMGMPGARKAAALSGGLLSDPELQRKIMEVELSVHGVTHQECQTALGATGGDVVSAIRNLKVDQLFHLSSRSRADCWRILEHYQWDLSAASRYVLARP
Particulars: at 0.1 µM.

The target in assay [7] is T2, Non-receptor tyrosine-protein kinase TNK1 (Homo sapiens). Particulars: at 1 µM.
For assay [8], the target named is Activated CDC42 kinase 1 (Homo sapiens) (UniProt Q07912). Particulars: at 0.1 µM.
UniProt Q07912, sequence (Q07912 whole entry, looked up): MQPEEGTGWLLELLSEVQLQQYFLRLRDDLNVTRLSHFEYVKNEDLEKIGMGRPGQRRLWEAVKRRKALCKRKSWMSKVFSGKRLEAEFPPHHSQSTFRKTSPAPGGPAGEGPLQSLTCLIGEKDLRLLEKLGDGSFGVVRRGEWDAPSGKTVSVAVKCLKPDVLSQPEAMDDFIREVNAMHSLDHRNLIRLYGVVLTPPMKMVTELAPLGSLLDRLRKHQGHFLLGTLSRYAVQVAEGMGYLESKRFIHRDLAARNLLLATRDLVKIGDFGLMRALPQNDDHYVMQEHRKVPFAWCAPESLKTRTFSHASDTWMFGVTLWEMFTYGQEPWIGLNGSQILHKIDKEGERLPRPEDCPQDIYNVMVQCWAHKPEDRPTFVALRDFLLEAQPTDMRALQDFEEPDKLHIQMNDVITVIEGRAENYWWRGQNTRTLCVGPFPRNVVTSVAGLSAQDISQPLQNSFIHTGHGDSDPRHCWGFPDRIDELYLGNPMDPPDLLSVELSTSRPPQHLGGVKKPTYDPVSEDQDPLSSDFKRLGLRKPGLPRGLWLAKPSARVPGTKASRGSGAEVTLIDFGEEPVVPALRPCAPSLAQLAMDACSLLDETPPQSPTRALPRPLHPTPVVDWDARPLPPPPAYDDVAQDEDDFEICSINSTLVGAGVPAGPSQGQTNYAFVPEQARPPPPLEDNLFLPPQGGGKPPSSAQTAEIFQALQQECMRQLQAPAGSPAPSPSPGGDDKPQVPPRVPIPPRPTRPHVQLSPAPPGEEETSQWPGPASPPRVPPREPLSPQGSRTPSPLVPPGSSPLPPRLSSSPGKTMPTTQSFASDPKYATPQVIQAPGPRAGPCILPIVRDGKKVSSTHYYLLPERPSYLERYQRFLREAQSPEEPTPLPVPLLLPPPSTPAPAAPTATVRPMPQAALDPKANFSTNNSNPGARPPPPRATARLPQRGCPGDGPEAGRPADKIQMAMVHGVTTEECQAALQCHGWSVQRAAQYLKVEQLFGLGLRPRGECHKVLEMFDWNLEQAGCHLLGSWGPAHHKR
The target is the same in assay [9]. The note with it: at 1 µM.
The target in assay [10] is High affinity nerve growth factor receptor (Homo sapiens) (UniProt P04629). Particulars: at 0.1 µM.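 Note: each value is a mean of replicate percent inhibition readings against TRKA kinase.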
UniProt P04629, sequence (P04629 whole entry, looked up): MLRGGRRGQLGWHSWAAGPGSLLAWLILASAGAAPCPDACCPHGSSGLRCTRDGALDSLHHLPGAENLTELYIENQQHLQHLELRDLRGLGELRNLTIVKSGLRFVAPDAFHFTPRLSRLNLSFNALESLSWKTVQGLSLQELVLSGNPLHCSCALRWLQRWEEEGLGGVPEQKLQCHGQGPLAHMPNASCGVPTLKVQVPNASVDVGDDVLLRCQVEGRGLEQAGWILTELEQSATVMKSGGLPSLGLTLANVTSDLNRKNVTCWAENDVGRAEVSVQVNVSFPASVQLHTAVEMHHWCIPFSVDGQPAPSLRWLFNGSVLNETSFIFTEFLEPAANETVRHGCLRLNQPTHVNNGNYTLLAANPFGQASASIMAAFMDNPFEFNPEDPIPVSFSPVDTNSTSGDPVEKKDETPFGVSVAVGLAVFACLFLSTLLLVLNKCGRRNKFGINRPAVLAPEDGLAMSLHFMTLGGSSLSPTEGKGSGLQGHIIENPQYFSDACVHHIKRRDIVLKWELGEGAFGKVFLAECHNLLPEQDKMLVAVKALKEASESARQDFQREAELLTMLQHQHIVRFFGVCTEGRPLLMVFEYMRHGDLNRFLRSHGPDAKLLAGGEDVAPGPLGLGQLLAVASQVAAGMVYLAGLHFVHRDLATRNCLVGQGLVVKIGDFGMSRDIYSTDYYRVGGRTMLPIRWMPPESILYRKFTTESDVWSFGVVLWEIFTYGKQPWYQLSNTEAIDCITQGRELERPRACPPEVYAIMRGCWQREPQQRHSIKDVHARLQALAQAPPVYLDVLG

14 compounds from ChEMBL document CHEMBL1961873, “Compounds: GSK PKIS; Assays: Nanosyn kinase panel” (2012) can be followed below.

The inhibition is the change of the read-out against control, counted positive when it falls.

For part of these data: The strong results were mostly taken out for another list; the other results follow. This is a selection; strong and weak results do not stand in their true shares.

Consider `O=C1NC(=O)C(c2ccccc2Cl)=C1Nc1cc(Cl)c(O)c(Cl)c1`, for which the inhibition in assay [1] was -0.92%; in assay [2], 3.62%; in assay [3], 7.44%; in [4], 2.11%; in assay [5] it was 2.62%; in assay [6], 2.9%. Also, the inhibition worked out at 11.5% in [7], 1.56% in assay [8], 2.62% in assay [9] and 3.35% in assay [10].
In the case of `COc1ccccc1Oc1nccc(-c2c(-c3ccc(F)cc3)ncn2C2CCNCC2)n1`, the inhibition in assay [1] was -1.63%; in [2] it was 1.83%; in assay [3], 4.98%; in [4], 0.74%; in assay [5] it was 5.82%; in [6], 0.7%. In addition, the values for the inhibition in assay [8], in assay [9] and in assay [10] were 0.69%, 1.57% and 0.19%, respectively.
In the case of `NC(=O)CCc1ccccc1Oc1nccc(-c2c(-c3ccc(F)cc3)ncn2C2CCNCC2)n1`, the inhibition was 0.03% in [1]; -4.39% in [2]; -3.02% in assay [3]; -0.84% in assay [4]; 1.36% in [5]; -0.89% in assay [6]. Also, the inhibition was -3.9% in assay [7], 0.03% in [8], -0.73% in assay [9] and 0% in assay [10].
`O=C1NC(=O)C(c2ccccc2)=C1Nc1ccccc1`: the inhibition in [1] is 1.94%; in [2], 5.62%; in assay [3] it was 9.18%; in assay [4], 3.8%; in assay [5] it was 9.38%; in assay [6], 2.76%. The inhibition in assay [7] turned out to be 9.19%; in assay [8] it was 1.47%; in [9] it was 3.13%; in [10], 4.65%.
As to `Fc1ccc(-c2ncn(C3CCNCC3)c2-c2ccnc(Oc3ccc(Cl)cc3)n2)cc1`, the inhibition in [1] is 0.42%; in assay [2] it was -1.47%; in [3] it was 0.25%; in assay [4], -0.53%; in [5] it was 0.87%; in [6] it was 1.46%. Moreover, the inhibition stood at 1.53% in [7], 0.23% in assay [8], 0.56% in assay [9] and 1.77% in [10].
Regarding `COc1ccccc1C1=C(Nc2ccccc2)C(=O)NC1=O`, the inhibition is -0.56% in assay [1]; 3.74% in assay [2]; 5.84% in assay [3]; 2.63% in assay [4]; 10.5% in assay [5]; 1.18% in assay [6]. The inhibition in [7] was 16.1%; in assay [8], 1.03%; in [9], 3.97%; in [10], 5.65%.
On to `CC(C)(C)c1ccc(Oc2nccc(-c3c(-c4ccc(F)cc4)ncn3C3CCNCC3)n2)cc1`, for which the inhibition in assay [1] was -0.62%; in assay [2] it was 1.98%; in assay [3], 3.44%; in assay [4], 2.87%; in assay [5], 4.69%; in assay [6], -2.21%. Also, the inhibition in assay [7] was determined as 3.9%; in [8] it was 1.3%; in assay [9], 1.57%; in assay [10], 4.18%.
Regarding `Fc1ccc(-c2ncn(C3CCNCC3)c2-c2ccnc(Oc3cccc(C(F)(F)F)c3)n2)cc1`, the inhibition in [1] was -3.7%; in assay [2], 1.75%; in assay [3] it was 7.26%; in [4] it was 1.42%; in [5] it was 6.06%; in assay [6], 3.98%. Also, the inhibition came to 6.8% in assay [7], 1.79% in assay [8], 1.64% in [9] and 2.69% in [10].
In the case of `CS(=O)(=O)c1ccc(Oc2nccc(-c3c(-c4ccc(F)cc4)ncn3C3CCNCC3)n2)cc1`, the inhibition was -4.82% in assay [1]; 1.39% in assay [2]; 3.24% in assay [3]; 1.55% in [4]; 4.73% in [5]; -0.86% in assay [6]. The inhibition in [7] amounted to 2.97%; in assay [8], 1.09%; in assay [9] it was 1.75%; in assay [10] it was 1.21%.
Regarding `Fc1ccc(Oc2nccc(-c3c(-c4ccc(F)cc4)ncn3C3CCNCC3)n2)cc1`, the inhibition was 4.17% in [1]; 4.04% in assay [2]; -0.84% in assay [3]; 4.93% in assay [4]; 3.93% in assay [5]; 2.48% in [6]. Besides, the inhibition was 1.8% in assay [7], -0.14% in assay [8], 0.27% in assay [9] and 2.73% in [10].
Turning to `O=C(O)c1ccc(Oc2nccc(-c3c(-c4ccc(F)cc4)ncn3C3CCNCC3)n2)cc1`, the inhibition in [1] is 2.11%; in assay [2], 8.41%; in assay [3] it was 3.8%; in assay [4], 4.07%; in assay [5], 2.55%; in assay [6], 2.93%. Besides, the inhibition in assay [7] is 4.92%; in assay [8] it was 0.73%; in assay [9] it was 0.31%; in assay [10] it was 2.34%.
As for `Cc1cccc(Oc2nccc(-c3c(-c4ccc(F)cc4)ncn3C3CCNCC3)n2)c1C`, the inhibition was -4.58% in [1]; 0.84% in assay [2]; 3.75% in assay [3]; -0.14% in [4]; 4.85% in assay [5]; 0.53% in assay [6]. Moreover, the inhibition was determined as 6.06% in assay [7], 0.55% in [8], 1.36% in [9] and 2.94% in [10].
For `O=C1NC(=O)C(c2cccc([N+](=O)[O-])c2)=C1Nc1cc(Cl)c(O)c(Cl)c1`, the inhibition is -2.48% in [1]; 0.43% in assay [2]; 5.27% in assay [3]; 4.76% in assay [5]; 1.38% in assay [6]; 16.7% in assay [7]. For the same compound, the inhibition was -0.27% in assay [8], -0.08% in assay [9] and -0.82% in assay [10].
For `Fc1ccc(-c2ncn(C3CCNCC3)c2-c2ccnc(Oc3cccc(F)c3)n2)cc1`, the inhibition in assay [1] came out at 0.39%; in assay [2] it was 6.97%; in assay [3], 7.94%; in assay [4], 3.23%; in assay [5] it was 5.78%; in [6], 3.17%. Besides, the inhibition in assay [7] turned out to be 4.41%; in assay [8], 1.1%; in [9] it was 2.89%; in [10] it was 1.59%.
